Laboratory results taken from PubChem BioAssay AID504332 (National Center for Advancing Translational Sciences (NCATS), 2011).
Out of some 350,000 compounds screened, about 31,000 (8.9%) were called active. Inconclusive results, whose numbers are uncertain, are shown with a selection of clear calls. The call rests on the fitted dose curve; in most records, active means well fitted inhibition curve with a large enough effect; inconclusive means small, poorly fitted or top-dose-only effect; inactive means no such curve, though single readings can be large or run the other way. Potencies of inconclusive entries are doubtful fits and often do not repeat.

These molecules were tested against Histone-lysine N-methyltransferase EHMT2 (Homo sapiens) (UniProt Q96KQ7) (assay: qHTS Assay for Inhibitors of Histone Lysine Methyltransferase G9a). Settings: G9a H3K9 monomethylation, AlphaScreen, 2 h; activity, negative = inhibition: at 59 µM (top of the series) unless noted.
Sequence of UniProt Q96KQ7 (Q96KQ7 whole entry, looked up): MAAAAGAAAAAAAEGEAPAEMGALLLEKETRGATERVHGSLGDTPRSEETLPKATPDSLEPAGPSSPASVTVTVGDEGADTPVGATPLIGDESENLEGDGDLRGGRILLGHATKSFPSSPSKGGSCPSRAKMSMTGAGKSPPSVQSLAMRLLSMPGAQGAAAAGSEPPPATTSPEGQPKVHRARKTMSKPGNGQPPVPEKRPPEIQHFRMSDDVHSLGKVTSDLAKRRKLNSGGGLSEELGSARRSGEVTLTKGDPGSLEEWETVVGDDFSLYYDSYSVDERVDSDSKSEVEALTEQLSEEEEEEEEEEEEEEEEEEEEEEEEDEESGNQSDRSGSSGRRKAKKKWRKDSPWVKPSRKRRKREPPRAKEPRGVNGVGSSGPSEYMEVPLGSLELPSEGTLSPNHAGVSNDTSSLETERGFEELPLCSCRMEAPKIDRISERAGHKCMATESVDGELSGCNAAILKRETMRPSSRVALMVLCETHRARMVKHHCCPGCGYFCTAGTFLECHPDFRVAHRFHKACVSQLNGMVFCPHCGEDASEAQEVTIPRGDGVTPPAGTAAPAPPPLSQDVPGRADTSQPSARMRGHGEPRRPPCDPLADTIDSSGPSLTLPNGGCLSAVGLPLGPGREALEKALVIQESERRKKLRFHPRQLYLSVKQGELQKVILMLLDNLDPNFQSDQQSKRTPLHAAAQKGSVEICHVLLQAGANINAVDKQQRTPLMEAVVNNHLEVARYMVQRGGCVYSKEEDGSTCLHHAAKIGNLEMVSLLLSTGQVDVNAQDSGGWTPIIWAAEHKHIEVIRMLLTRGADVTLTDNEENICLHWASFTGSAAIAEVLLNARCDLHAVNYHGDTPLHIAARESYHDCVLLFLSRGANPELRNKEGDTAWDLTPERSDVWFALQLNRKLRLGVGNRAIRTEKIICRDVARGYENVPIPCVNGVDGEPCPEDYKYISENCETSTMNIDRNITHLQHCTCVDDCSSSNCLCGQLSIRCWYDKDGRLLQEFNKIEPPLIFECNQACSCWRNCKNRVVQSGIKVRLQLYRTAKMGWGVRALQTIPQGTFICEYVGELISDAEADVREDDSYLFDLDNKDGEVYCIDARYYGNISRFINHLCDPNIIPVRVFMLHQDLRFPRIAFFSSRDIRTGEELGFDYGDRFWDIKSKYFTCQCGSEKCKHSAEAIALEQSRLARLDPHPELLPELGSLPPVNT
Summary of the method: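 Chemiluminescent proximity detection of H3K9 monomethylation, read after 10 min bead incubation in the dark. Reaction: 20 nM G9a, 500 nM biotin-H3K9 peptide, 20 uM SAM cofactor, 2 h, room temperature, following 15 min enzyme-compound preincubation.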
Further: nearly all actives have a fitted effect of over 75% in size.
On the % scale 0 is the no-effect control and ±100 the full control effect; potency means the concentration at half of the fitted maximal effect; tags describe the fitted curve by direction and shape.

| SMILES | Potency | activity, negative = inhibition |
| --- | --- | --- |
| CN(C)c1ccc(N=Nc2ccccc2C(=O)OCC(=O)Nc2ccccc2C(F)(F)F)cc1 | active: 10 µM |  |
| COc1ccc(N2CCN(CC(O)COCc3ccccc3)CC2)cc1 (centres undefined) | active: 39.8 µM |  |
| Cc1ccc(NC(=O)N2CCC(CN3CCCCC3)CC2)c(Cl)c1 | inactive |  |
| COC(=O)[C@H](CCSC)NC(=O)Nc1ccc(C)cc1 | inconclusive: 100 µM [inhibitor, single point] |  |
| O=C(/C=C/c1ccco1)NC1CCCC1 | inconclusive: 35.5 µM [inhibitor, partial curve, poor fit] |  |
| COc1nnc(-c2ccc(N3CCOCC3)c(NC(=O)c3ccccc3)c2)c2ccccc12 | inconclusive: 89.1 µM [inhibitor, single point] |  |
| Nc1c(C(=O)Nc2cccc(C(=O)O)c2)sc2nc3c(cc12)CCCC3 | active: 44.7 µM |  |
| Cc1ccc(OC(=O)CCC(=O)Nc2ccc(Br)cc2)cc1 | inactive |  |
| COC(=O)c1ccc(OCC(O)CN2CCc3cc(OC)c(OC)cc3C2c2ccccc2)cc1 (centres undefined) | inconclusive: 79.4 µM [inhibitor, single point] |  |
| c1cc2c3c(cccc3c1)NC1(CCCCCC1)N2 | active: 4.47 µM |  |
| CN(C)c1ccc(CNC(=O)C2CCN(C(=O)c3ccc(-n4ccc5ccccc54)s3)CC2)cc1 | inconclusive: 8.91 µM [inhibitor, partial curve, poor fit] |  |
| O=C(O)Cc1cccc(OCCCN(Cc2cccc(C(F)(F)F)c2Cl)CC(c2ccccc2)c2ccccc2)c1 | active: 17.8 µM |  |
| CC(=O)Nc1ccc(SC(C)C(=O)NC(N)=O)cc1 (centres undefined) | active: 39.8 µM |  |
| CC1CCCCC12NC(=O)N(CC(=O)N1CCN(c3ncccn3)CC1)C2=O (centres undefined) | inconclusive: 39.8 µM [inhibitor, single point] |  |
| Cc1ccccc1Nc1nnc(-c2ccc(C)c(S(=O)(=O)NCC3CCCO3)c2)c2ccccc12 (centres undefined) | inconclusive: 28.2 µM [inhibitor, partial curve, poor fit] |  |
| Cc1ccc(C2C(=O)N(C3CCCCCC3)CC(=O)N2CCC2=CCCCC2)cc1 (centres undefined) | inactive |  |
| Cc1ccc(N2CCN(C(=O)CCS(=O)(=O)c3cc4c(cc3Cl)NC(=O)CO4)CC2)c(C)c1 | inactive |  |
| COc1cc([N+](=O)[O-])ccc1NC(=O)N1CCC2(CC1)Nc1cc(F)ccc1-n1cccc12 | inconclusive: 39.8 µM [inhibitor, partial curve, poor fit] |  |
| CCn1c(O)c(N=NC(=O)c2cccs2)c2ccccc21 | inconclusive: 35.5 µM [inhibitor, full curve] |  |
| COC(=O)c1c(-c2cccnc2)csc1NC(=O)c1cc(C)on1 | inconclusive: 5.01 µM [inhibitor, single point] |  |
| Nc1c(S(=O)(=O)c2ccccc2)c2nc3ccccc3nc2n1Cc1ccco1 |  | inactive: -3.14% [at 12.7 µM] |
| COc1ccc(/C(O)=C/c2nc3ccc(C(=O)NCCc4cccc(C)c4)cc3[nH]c2=O)cc1OC | inconclusive: 100 µM [inhibitor, single point] |  |
| CCCCC(=O)Nc1sc2c(c1C(N)=O)CCC2 | inconclusive: 50.1 µM [inhibitor, partial curve] |  |

| SMILES | Potency | activity, negative = inhibition |
| --- | --- | --- |
| COc1ccc(NC(=O)COC(=O)C2CCN(S(=O)(=O)c3ccccc3)CC2)cc1Cl | inconclusive: 89.1 µM [inhibitor, partial curve, poor fit] |  |
| CCC(C)c1ccccc1NC(=O)COC(=O)c1ccc2[nH]c3c(c2c1)CCCC3 (centres undefined) | inconclusive: 35.5 µM [inhibitor, single point] |  |
| CCOC(=O)C1CCN(Cc2ccc(C(=O)OC)cc2)CC1 | inconclusive: 2.24 µM [inhibitor, partial curve, poor fit] |  |
| CCOC(=O)c1ccc(NC(=O)C(CC)Sc2nncn3c2cc2oc(C)cc23)cc1 (centres undefined) | inconclusive: 10 µM [inhibitor, partial curve, poor fit] |  |
| c1ccc(-c2csc(-n3cccn3)n2)cc1 | inconclusive: 79.4 µM [inhibitor, single point] |  |
| O=C(OCC#CCSc1nnc(-c2ccc([N+](=O)[O-])cc2)o1)c1cccs1 | active: 31.6 µM |  |
| COc1ccc(CNS(=O)(=O)c2csc(C(N)=O)c2)cc1OC | inactive |  |
| CN(C)c1ncc2nc(CCc3ccccc3)c(=O)n(CCc3ccccc3)c2n1 |  | inactive: 10.3% [at 0.501 µM] |
| O=C(COc1ccc(Cl)cc1Cl)N1CCCC1 | inconclusive: 79.4 µM [inhibitor, single point] |  |
| O=C1Nc2c(c(=O)[nH]c(=O)n2-c2ccc(F)cc2)C1(NS(=O)(=O)c1ccc(Cl)cc1)C(F)(F)F (centres undefined) | inactive |  |
| Cn1nnnc1SCCCNCc1cc(Cl)ccc1OCc1ccccc1 | inactive |  |
| COc1cc(/C=c2\sc3nc(-c4ccncc4)nn3c2=O)ccc1OC(C)=O |  | inconclusive: -54.2% [inhibitor] |
| COc1ccccc1N1CCN(C(=O)c2ccc(NC3=NC4CS(=O)(=O)CC4S3)cc2)CC1 (centres undefined) | inactive |  |
| CCC1=C(c2ccc(C)cc2)S(=O)(=O)N=C1N1CCC(C(=O)NCCc2cccc(OC)c2)CC1 | inactive |  |
| COc1ccc(OCCCn2c(C)nc3cc(C)c(C)cc32)cc1 | inconclusive: 22.4 µM [inhibitor, partial curve, poor fit] |  |
| N#CC1=C(SCC(=O)Nc2nccs2)NC(=O)CC1c1ccccc1 (centres undefined) | inconclusive: 89.1 µM [inhibitor, single point] |  |
| COc1cc(C(=O)Nc2nnc(CC(C)(C)C)s2)cc(OC)c1OC | inconclusive: 15.8 µM [inhibitor, partial curve] |  |
| CCNc1nc(N)c(C(=O)C23CC4CC(CC(C4)C2)C3)s1 | inconclusive: 35.5 µM [inhibitor, full curve] |  |
| COc1nccnc1NS(=O)(=O)c1ccc(NC(=O)c2ccccc2Br)cc1 | inconclusive: 4.47 µM [inhibitor, full curve] |  |
| O=C(CSc1nc(-c2ccco2)cc(C(F)(F)F)n1)N1CCSCC1 | inconclusive: 39.8 µM [inhibitor, single point] |  |
| COC(=O)CSc1[nH]c2ccc(F)cc2c1[N+](=O)[O-] |  | inconclusive: -75.1% [inhibitor] |
| O=C(Nc1cccc(Cl)c1)c1ccc2c(c1)SC1=NS(=O)(=O)CCN12 |  | inconclusive: -76% [inhibitor] |
| FC(F)(F)c1ccccc1-c1nc(NC2CC2)c2ccccc2n1 |  | inactive: 8.99% [at 0.501 µM] |

| SMILES | Potency | activity, negative = inhibition |
| --- | --- | --- |
| O=C1NC2(CCCCC2)C(=O)N1/N=C/c1ccc(O)cc1O | active: 3.98 µM |  |
| O=C(c1cccc(Cl)c1)N1CCN(Cc2ccncc2)CC1 | active: 35.5 µM |  |
| CCN(CC)CCNC(=O)Cn1cnc2sc(C)c(S(=O)(=O)N3CCC(C)CC3)c2c1=O | inconclusive: 28.2 µM [inhibitor, partial curve, poor fit] |  |
| CCCCCCn1c(N2CCN(c3ccccc3)CC2)nc2c1c(=O)n(C)c(=O)n2C | inconclusive: 10 µM [inhibitor, partial curve, poor fit] |  |
| CN1CCN(c2nc(-c3ccccc3)nc(-c3ccc(F)cc3)c2C#N)CC1 | inconclusive: 39.8 µM [inhibitor, partial curve, poor fit] |  |
| COc1ccc(CNC(=O)CN(C)S(=O)(=O)c2ccc3[nH]c4c(c3c2)CCCC4)cc1 | inconclusive: 14.1 µM [inhibitor, partial curve] |  |
| CC1CC(=O)c2c(cc3c(-c4c(O)cc(O)c5c(O)c6c(cc45)OC(C)CC6=O)c(O)cc(O)c3c2O)O1 (centres undefined) | inconclusive: 2.51 µM [inhibitor, partial curve, poor fit] |  |
| COc1cccc(CN(C)CC(=O)Nc2sc3c(c2C#N)CCC3)c1 | inconclusive: 89.1 µM [inhibitor, partial curve, poor fit] |  |
| CCOc1ccc(C(=O)Nc2ccc(Cl)c(-c3nc4cc(C)cc(C)c4o3)c2)cc1 | inconclusive: 1.26 µM [inhibitor, full curve, poor fit] |  |
| CCC1=[N+](C)CCn2c(C)ccc21 | active: 1.78 µM |  |
| COc1ccccc1CNC(=O)CCNC(=O)Cn1ccc2ccccc2c1=O |  | inactive: 2.2% [at 12.7 µM] |
| O=C(Nc1scc(-c2ccc(F)cc2)c1C(=O)O)c1ccco1 | inconclusive: 1.78 µM [inhibitor, partial curve, poor fit] |  |
| COc1ccc(C(=O)Nc2ncc3c(n2)CC(c2ccco2)CC3=O)cc1 (centres undefined) | inconclusive: 89.1 µM [inhibitor, partial curve, poor fit] |  |
| COc1ccc(/C=C/C(=O)OCC(=O)N2CCc3ccccc32)cc1 | inconclusive: 28.2 µM [inhibitor, single point] |  |
| COc1ccccc1-c1cc2nc(C)c(CCC(=O)NC(C)CCc3ccco3)c(C)n2n1 (centres undefined) | inconclusive: 100 µM [inhibitor, single point] |  |
| COCCn1c(CCc2ccccc2)n[nH]c1=S | inactive |  |
| CCNc1oc(COc2ccccc2F)nc1C#N | active: 39.8 µM |  |
| CCOC(=O)c1cnc2c(C)cc(C)cc2c1Nc1ccc(N2CCOCC2)cc1 | active: 10 µM |  |
| Cc1csc(NC(=O)CSc2nncs2)n1 | inconclusive: 89.1 µM [inhibitor, partial curve, poor fit] |  |
| CCC(C)(C)NC(=O)c1ccc2c(c1)OCCO2 | inactive |  |
| O=C(Nc1ccc(-c2ccc([N+](=O)[O-])cc2)cc1)c1ccccc1F | active: 50.1 µM |  |
| CCOC(=O)c1c(NC(=O)COC(=O)Cn2cnc3ccccc32)sc(C)c1C | inactive |  |
| O=C(CCN1CCCCC1)Nn1c(=S)[nH]c2ccccc2c1=O | inconclusive: 8.91 µM [inhibitor, single point] |  |
